Common to all, as to assay: Primary Screen for Target Class Profiling of Small Molecule Inhibitors of Methyltransferases
Assay [1] concerns the target Glycine N-methyltransferase (Homo sapiens) (UniProt Q14749). The settings on record: purified enzyme, MTase-Glo SAH luminescence; measured here: GNMT inhibition; at 40 µM; stronger effect = lower value. The source says:
(§1) PI: Matthew D. Hall Ph.D. and Quinlin M. Hanson Ph.D.
(§2) National Center for Advancing Translational Sciences (NCATS)
(§3) National Institute of Health (NIH), Rockville, MD
(§4) Target class profiling (TCP) is a chemical biology approach amenable to investigating understudied biological targets. TCP is achieved by developing a generalizable assay platform and applying it to screen a curated set of compound libraries against representative members of a target class. Small molecule methyltransferases (SMMTase) are a subclass of methyltransferase that act on metabolites to modulate signaling pathways, metabolize xenobiotics, or balance the available methyl pool. We screened four curated libraries totaling 27,574 unique compounds against the SMMTases nicotinamide N-methyltransferase (NNMT), phenylethanolamine N-methyltransferase (PNMT), histamine N-methyltransferase (HNMT), glycine N-methyltransferase (GNMT), catechol O-methyltransferase (COMT), and guanidinoacetate N-methyltransferase (GAMT). The data generated by this TCP can be leveraged for informed tool molecule development. For example, in the associated publication we identified a chemotype of HNMT-selective inhibitors. Additionally, we identified a putative SMMTase-selective inhibitor with potential as a tool molecule for studying broader methyltransferase biology.
(§5) High-through put screening assays were developed at the National Center for Advancing Translational Science (NCATS) for the enzymes NNMT, PNMT, HNMT, GNMT, COMT, and GAMT. Enzymatic activity was measured as a function of SAM cofactor conversion using the MTase Glo kit (Promega) for all enzymes. All assays were performed in 1536-well format with substrates and SAM concentrations at KM values. Enzyme concentration and assay timing were optimized for 10-20% SAM conversion. Initial screening of 27,574 compounds was done as single-point assays using the highest compound concentration (40 uM). […] These compounds were replated in 11-point dose response and assayed against NNMT, PNMT, HNMT, GNMT, COMT, GAMT, and a counter-assay. The IC50 and efficacy (maximal response) values were determined for each dose-response curve. These values are also accounted for in the area under the curve (AUC) values.
(§6) PROTOCOL TABLE (as described by Inglese J, Shamu CE and Guy RK. 2007)
(§7) SEQUENCE No. (e.g., 1, 2, 3, etc.); […] (e.g., Cells, Incubation, Reagent, etc.); VALUE; DESCRIPTION.
(§8) 1; Reagent; 2 uL; SMMTase Enzyme (2x) in reaction buffer, columns 1- 48.
(§9) 2; Reagent; 1 uL; SAM (4x) in reaction buffer, columns 1-48.
(§10) 3; Controls; 23 nL; DMSO in column 4; sinefungin in DMSO (0 uM - 40 uM) in 7-point 1:2 dilution series (n = 2) in column 2.
(§11) 4; Compounds; 23 nL; Columns 5-48.
(§12) 5; Reagent; 1 uL; Substrate (4x) in reaction buffer, columns 2-48.
(§13) 6; Time; 20-30 min; Incubation.
(§14) 7; Reagent; 1 uL; MTase-Glo reagent (5X), columns 1-48.
(§15) 8; Time; 30 min; Incubation.
(§16) 9; Reagent; 5 uL; MTase-Glo Detection reagent, columns 1-48.
(§17) 10; Time; 30 min; Incubation, luminescence evolution.
(§18) 11; Detection; Luminescence; ViewLux uHTS Microplate Imager (PerkinElmer).
(§19) NOTES (numbers refer to Sequence numbers above)
(§20) 1, 2, 5. White Medium Binding Greiner 1536-well plates (Cat #789175-F, Greiner Bio-One, Monroe, NC); Reaction buffer: 50 mM Tris, pH 8.0, 3 mM MgCl2, 1 mM EDTA, 50 mM NaCl, 1 mM DTT, and 0.1 mg/mL BSA. Evaporation was prevented by covering assay plates with metal lids containing holes to allow gas diffusion.
(§21) 1. Six SMMTase were profiled: HNMT, GNMT, PNMT, COMT, NNMT, GAMT
(§22) 5. The corresponding substrate was used for each enzyme: HNMT - 5.3 uM Histamine; GNMT - >500 uM Glycine; PNMT - 16.2 uM Norephinephrine; COMT - 13.7 uM Norephinephrine; NNMT - 3.8 uM Nicotinamide; GAMT - 2.5 uM Guanidinoacetate.6, 8, 10. Room temperature
(§23) 6. Final reaction conditions: 10 nM COMT, 5 uM SAM, 15 uM norepinephrine, 50 mM Tris, pH 8.0, 3 mM MgCl2, 1 mM EDTA, 50 mM NaCl, 1 mM DTT, and 0.1 mg/mL BSA; refer to tables 2 and S1 for specific timing.
8. […]

The target of assay [2] is Guanidinoacetate N-methyltransferase (Homo sapiens) (UniProt Q14353). The settings on record: purified enzyme, MTase-Glo SAH luminescence; measured here: GAMT inhibition; at 40 µM; stronger effect = lower value.
Source text: as §1, §2, §3, §4, §5, §6, §7, §8, §9, §10, §11, §12, §13, §14, §15, §16, §17, §18, §19, §20, §21, §22, §23
8. […]

The target in assay [3] is Histamine N-methyltransferase (Homo sapiens) (UniProt P50135). To be noted: purified enzyme, MTase-Glo SAH luminescence; measured here: HNMT inhibition; at 40 µM; stronger effect = lower value.
Source text: as §1, §2, §3, §4, §5, §6, §7, §8, §9, §10, §11, §12, §13, §14, §15, §16, §17, §18, §19, §20, §21, §22, §23
8. […]

Assay [4] addresses Nicotinamide N-methyltransferase (Homo sapiens) (UniProt P40261). To be noted: purified enzyme, MTase-Glo SAH luminescence; measured here: NNMT inhibition; at 40 µM; stronger effect = lower value.
Source text: as §1, §2, §3, §4, §5, §6, §7, §8, §9, §10, §11, §12, §13, §14, §15, §16, §17, §18, §19, §20, §21, §22, §23
8. […]

The target of assay [5] is Phenylethanolamine N-methyltransferase (Homo sapiens) (UniProt P11086). The settings on record: purified enzyme, MTase-Glo SAH luminescence; measured here: PNMT inhibition; at 40 µM; stronger effect = lower value.
Source text: as §1, §2, §3, §4, §5, §6, §7, §8, §9, §10, §11, §12, §13, §14, §15, §16, §17, §18, §19, §20, §21, §22, §23
8. […]

SMILES strings stand for the structures. The list shows a part of the results. Further columns of the screen follow, without active or inactive calls. Square brackets hold non-standard residues; d marks the D form. Peptide text beside a SMILES is read from it. pGlu = O=C1CC[C@@H](C(=O)O)N1; Thz = O=C(O)[C@@H]1CSCN1

Consider 14 compounds from PubChem BioAssay AID1745853 (National Center for Advancing Translational Sciences (NCATS), 2022).
% is set by controls: 0 for no effect and ±100 for the full control effect.

For the compound `CN1C(=O)c2cc(C(=O)N3CCOCC3)nn2CC1(C)C(=O)NCc1ccc(F)cc1` (stereo not drawn), the activity change, negative = inhibition in assay [1] was 1.3%; in assay [2], 1.96%; in assay [3] it was -5.84%; in assay [4], 5.94%; in assay [5] it was 2.26%.
Turning to `COc1cc(Nc2c(C#N)cnc3cc(OCCCN4CCN(C)CC4)c(OC)cc23)c(Cl)cc1Cl`, the activity change, negative = inhibition was -92.9% in assay [1]; -93% in assay [2]; -92.3% in assay [3]; -96.4% in assay [4]; -97.1% in assay [5].
For `COc1cc(Nc2nc3c(S(=O)(=O)c4ccc(C)cc4)nnn3c3ccccc23)cc(OC)c1`, the activity change, negative = inhibition is -2% in assay [1]; 4.97% in assay [2]; 4.18% in assay [3]; 4.3% in assay [4]; -3.08% in assay [5].
In the case of `CCn1cnnc1CC1CCN(C(=O)C2CCN(Cc3nc(-c4cccc(C)c4)oc3C)CC2)CC1`, the activity change, negative = inhibition in assay [1] is -7.74%; in assay [2] it was -4.29%; in assay [3], -25.3%; in assay [4] it was -26.3%; in assay [5] it was 5.79%.
Take `Cc1ccc(C(=O)Cn2nc3n(CC(C)C)c(=O)c4ccc(C(=O)NCC(C)C)cc4n3c2=O)cc1`: the activity change, negative = inhibition in assay [1] was -0.088%; in assay [2], 1.54%; in assay [3], 2.69%; in assay [4], -5.13%; in assay [5], 3.2%.
The matching figures for `O=S(=O)(c1cccc(-c2nc(-c3ccccc3)no2)c1)N1CCc2ccccc21`: 15.3%, 0.212%, 9.6%, 1.85% and 4.85%.
As to `C=C[C@H]1C(O[C@@H]2O[C@H](CO)[C@@H](O)[C@H](O)[C@H]2O)OC=C2C(=O)N3CCc4c([nH]c5ccccc45)[C@H]3C[C@H]21` (stereo partly drawn), the activity change, negative = inhibition in assay [1] is -8.76%; in assay [2], 5.79%; in assay [3] it was 6.04%; in assay [4], -5.21%; in assay [5], 3.41%.
As for `Cn1c(=O)c2ccc(C(=O)NC3CCCCC3)cc2n2c(SCc3c(F)cccc3Cl)nnc12`, the activity change, negative = inhibition stood at 0.281% in assay [1]; 5.58% in assay [2]; 4.42% in assay [3]; 5.02% in assay [4]; 3.19% in assay [5].
As for `COc1ccc(Cl)cc1NC(=O)Nc1cc(C)nc2ccccc12`, the values for the activity change, negative = inhibition in assay [2], in assay [4] and in assay [5] were -1.08%, -24.9% and -2.76%, respectively.
Regarding `CN(C)CCC(c1ccc(Br)cc1)c1ccccn1` (stereo not drawn), the activity change, negative = inhibition in assay [1] was 0.793%; in assay [2], 4%; in assay [3] it was -23.5%; in assay [4] it was -11.4%; in assay [5], -0.039%.
For `Cc1cc(C(=O)N2CCC(Cc3nc(-c4ccccc4)n[nH]3)C2)n(C)n1` (stereo not drawn) the same measures were -3.28%, -4.03%, -0.759%, -11.2% and 7.96%.
For `COc1ccccc1N1CCN(CCCNc2c(C)c(=O)n(C)c(=O)n2C)CC1` the same measures were -4.06%, 3.17%, -0.105%, -13% and 4.68%.
The matching figures for `O=C1CC[C@@H](C(=O)N2CSC[C@H]2C(=O)O)N1` ([pGlu]-[Thz]-OH): 0.367%, 5%, 9.62%, -9.2% and 4.24%.
Consider `CC(C)NC(=O)Cn1nc2n(Cc3ccccc3)c(=O)c3ccc(C(=O)NC(C)C)cc3n2c1=O`, for which the activity change, negative = inhibition in assay [1] is 0.439%; in assay [2], 0.237%; in assay [3] it was 6.32%; in assay [4], -3.74%; in assay [5] it was 2.82%.
